The other results are listed elsewhere or left out.
How the values were obtained:
Assay in all cases: glycan array binding signal (z-score within array); higher = stronger binding
Details in all cases: glycan notation: IUPAC condensed, linker removed; mutation: F335Y
Gal(b1-3)GlcNAc = biological target: Gal(b1-3)GlcNAc
Outline: (§1)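 The Consortium for Functional Glycomics database supplied 3228 glycan arrays, of which those lacking an available protein sequence were dropped. The binding signal, a within-array Z-score, was averaged across arrays of the same protein sequence and across linkers. Negative scores can be read as non-binding.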

[1] = biological target: Gal(b1-3)GlcNAc(b1-2)Man(a1-3)[Gal(b1-3)GlcNAc(b1-2)Man(a1-6)]Man(b1-4)GlcNAc(b1-4)GlcNAc
Outline: as §1

[2] = biological target: Gal(b1-3)GlcNAc(b1-3)Gal(b1-3)GlcNAc
Outline: as §1

[3] = biological target: Gal(b1-3)GlcNAc(b1-3)Gal(b1-4)Glc
Outline: as §1

[4] = biological target: Gal(b1-3)GlcNAc(b1-3)Gal(b1-4)GlcNAc
Outline: as §1

[5] = biological target: Gal(b1-3)[Fuc(a1-4)]GlcNAc
Outline: as §1

[6] = biological target: Gal(b1-3)[Fuc(a1-4)]GlcNAc(b1-3)Gal(b1-3)[Fuc(a1-4)]GlcNAc
Outline: as §1

[7] = biological target: Gal(b1-3)[Fuc(a1-4)]GlcNAc(b1-3)Gal(b1-4)GlcNAc
Outline: as §1

[8] = biological target: Gal(b1-3)[Fuc(a1-4)]GlcNAc(b1-3)Gal(b1-4)[Fuc(a1-3)]GlcNAc
Outline: as §1

[9] = biological target: Gal(b1-3)[GlcNAc(b1-6)]GalNAc
Outline: as §1

[10] = biological target: Gal(b1-3)[Neu5Ac(a2-6)]GalNAc
Outline: as §1

[11] = biological target: Gal(b1-3)[Neu5Ac(a2-6)]GlcNAc(b1-6)Gal(b1-4)Glc
Outline: as §1

[12] = biological target: Gal(b1-3)[Neu5Ac(b2-6)]GalNAc
Outline: as §1

[13] = biological target: Gal(b1-4)GalNAc(a1-3)[Fuc(a1-2)]Gal(b1-4)GlcNAc
Outline: as §1

[14] = biological target: Gal(b1-4)GalNAc(b1-3)[Fuc(a1-2)]Gal(b1-4)GlcNAc
Outline: as §1

Gal(b1-4)Glc = biological target: Gal(b1-4)Glc
Outline: as §1

Gal(b1-4)Glc6S = biological target: Gal(b1-4)Glc6S
Outline: as §1

Gal(b1-4)GlcNAc = biological target: Gal(b1-4)GlcNAc
Outline: as §1

[15] = biological target: Gal(b1-4)GlcNAc(a1-6)Gal(b1-4)GlcNAc
Outline: as §1

[16] = biological target: Gal(b1-4)GlcNAc(b1-2)Man(a1-3)[Gal(b1-4)GlcNAc(b1-2)Man(a1-6)]Man(b1-4)GlcNAc(b1-4)GlcNAc
Outline: as §1

[17] = biological target: Gal(b1-4)GlcNAc(b1-3)Gal(b1-3)GlcNAc
Outline: as §1

[18] = biological target: Gal(b1-4)GlcNAc(b1-3)Gal(b1-4)Glc
Outline: as §1

[19] = biological target: Gal(b1-4)GlcNAc(b1-3)Gal(b1-4)GlcNAc
Outline: as §1

[20] = biological target: Gal(b1-4)GlcNAc(b1-3)Gal(b1-4)GlcNAc(b1-3)Gal(b1-4)GlcNAc
Outline: as §1

[21] = biological target: Gal(b1-4)GlcNAc(b1-3)Gal(b1-4)[Fuc(a1-3)]GlcNAc(b1-3)Gal(b1-4)[Fuc(a1-3)]GlcNAc
Outline: as §1

[22] = biological target: Gal(b1-4)GlcNAc(b1-3)GalNAc
Outline: as §1

[23] = biological target: Gal(b1-4)GlcNAc(b1-3)[Gal(b1-4)GlcNAc(b1-6)]Gal(b1-4)GlcNAc
Outline: as §1

[24] = biological target: Gal(b1-4)GlcNAc(b1-3)[GlcNAc(b1-6)]Gal(b1-4)GlcNAc
Outline: as §1

[25] = biological target: Gal(b1-4)GlcNAc(b1-6)Gal(b1-4)GlcNAc
Outline: as §1

[26] = biological target: Gal(b1-4)GlcNAc(b1-6)Gal(b1-4)GlcNAc(b1-6)GalNAc
Outline: as §1

[27] = biological target: Gal(b1-4)GlcNAc(b1-6)GalNAc
Outline: as §1

[28] = biological target: Gal(b1-4)GlcNAc(b1-6)[Gal(b1-3)]GalNAc
Outline: as §1

Gal3S(b1-3)GalNAc = biological target: Gal3S(b1-3)GalNAc
Outline: as §1

Gal3S(b1-3)GlcNAc = biological target: Gal3S(b1-3)GlcNAc
Outline: as §1

[29] = biological target: Gal3S(b1-3)[Fuc(a1-4)]GlcNAc
Outline: as §1

Gal3S(b1-4)Glc = biological target: Gal3S(b1-4)Glc
Outline: as §1

Gal3S(b1-4)Glc6S = biological target: Gal3S(b1-4)Glc6S
Outline: as §1

Gal3S(b1-4)GlcNAc = biological target: Gal3S(b1-4)GlcNAc
Outline: as §1

B1: Surfactant Protein D (Human); Neck + Carbohydrate Recognition Domain (NCRD) (Homo sapiens) (protein)
chain: MLLFLLSALVLLTQPLGYLEAEMKTYSHRTMPSACTLVMCSSVESGLPGRDRDGREGPRGEKGDPGLPGAAGQAGMPGQAGPVGPKGDNGSVGEPGPKGDTGPSGPPGPPGVPGPAGREGALGKQGNIGPQGKPGPKGEAGPKGEVGAPGMQGSAGARGLAGPKGERGVPGERGVPGNTGAAGSAGAMGPQGSPGARGPPGLKGDKGIPGDKGAKGESGLPDVASLRQQVEALQGQVQHLQAAFSQYKKVELFPNGQSVGEKIFKTAQFVKPFTEAQLLCTQAGGQLASPRSAAENAALQQLVVAKNEAAFLSMTDSKTEGKFTYPTGESLVYSNWAPGEPNDDGGSEDCVEIYTNGKWNDRACGEKRLVVCEF
glycan array binding signal (z-score) (Gal(b1-3)GlcNAc): -0.182 | glycan array binding signal (z-score) [1]: -0.191 | glycan array binding signal (z-score) [2]: -0.188 | glycan array binding signal (z-score) [3]: -0.194 | glycan array binding signal (z-score) [4]: -0.19 | glycan array binding signal (z-score) [5]: -0.187 | glycan array binding signal (z-score) [6]: 0.096 | glycan array binding signal (z-score) [7]: -0.075 | glycan array binding signal (z-score) [8]: -0.194 | glycan array binding signal (z-score) [9]: -0.185 | glycan array binding signal (z-score) [10]: -0.191 | glycan array binding signal (z-score) [11]: -0.188 | glycan array binding signal (z-score) [12]: -0.19 | glycan array binding signal (z-score) [13]: -0.182 | glycan array binding signal (z-score) [14]: -0.167 | glycan array binding signal (z-score) (Gal(b1-4)Glc): -0.187 | glycan array binding signal (z-score) (Gal(b1-4)Glc6S): -0.175 | glycan array binding signal (z-score) (Gal(b1-4)GlcNAc): -0.184 | glycan array binding signal (z-score) [15]: -0.191 | glycan array binding signal (z-score) [16]: -0.185 | glycan array binding signal (z-score) [17]: -0.189 | glycan array binding signal (z-score) [18]: -0.193 | glycan array binding signal (z-score) [19]: -0.192 | glycan array binding signal (z-score) [20]: -0.188 | glycan array binding signal (z-score) [21]: -0.172 | glycan array binding signal (z-score) [22]: -0.191 | glycan array binding signal (z-score) [23]: -0.188 | glycan array binding signal (z-score) [24]: -0.191 | glycan array binding signal (z-score) [25]: -0.192 | glycan array binding signal (z-score) [26]: -0.185 | glycan array binding signal (z-score) [27]: -0.191 | glycan array binding signal (z-score) [28]: -0.185 | glycan array binding signal (z-score) (Gal3S(b1-3)GalNAc): -0.193 | glycan array binding signal (z-score) (Gal3S(b1-3)GlcNAc): -0.185 | glycan array binding signal (z-score) [29]: -0.187 | glycan array binding signal (z-score) (Gal3S(b1-4)Glc): -0.174 | glycan array binding signal (z-score) (Gal3S(b1-4)Glc6S): -0.171 | glycan array binding signal (z-score) (Gal3S(b1-4)GlcNAc): -0.187

Reference: the supplement of paper PMC8728848
